The test system of this data set is conditionally-immortalized mouse podocyte cell line. The experiment in a line: Podocyte cytotoxicity assay (Cell Titer-Blue). The conditions noted are these: 72 hours, three experiments. On the procedure:
Podocytes are polarized epithelial cells located on the glomerular basement membrane that contribute to the integrity of the filtration barrier. For the purposes of these experiments, they function as an indicator of renal toxicity. Following 72 hours of treatment with each compound concentrations ranging from 30 μM to 3 nM, podocyte viability was assessed by measuring residual metabolic activity (FIG. 30). […] Of the 15 analogs tested, only two, TSA and apicidin, caused sufficient cytotoxicity to allow the calculation of an E50 value. […] Treatment with PTBA or each of 12 structural analogs never decreased podocyte viability below the 50% threshold, even when tested at 30 μM (FIG. 30). […]
The isolation and characterization of conditionally-immortalized mouse podocyte cell line have been previously described (Mundel, P. et al. Rearrangements of the cytoskeleton and cell contacts induce process formation during differentiation of conditionally immortalized mouse podocyte cell lines. Exp Cell Res 236, 248-258, (1997) and Schwartz, E. J. et al. Human immunodeficiency virus-1 induces loss of contact inhibition in podocytes. J Am Soc Nephrol 12, 1677-1684, (2001)). […] After incubation, cytotoxicity was analyzed using the Cell Titer-Blue Cell Viability Assay (Promega) per manufacturer's instructions. […] Fluorescence was read at 79 560Ex/590Em on a Gemini SpectramaxXS (Molecular Devices) plate reader. […]

With `CC(/C=C/C(=O)NO)=C\[C@@H](C)C(=O)c1ccc(N(C)C)cc1` [TSA, trichostatin A], the “mean E50 (concentration where 50% of the exposed podocytes remained viable)” value is reported as 96 nM.
The same measure for `CCC(=O)CCCCC[C@@H]1NC(=O)[C@H]2CCCCN2C(=O)[C@H]([C@@H](C)CC)NC(=O)[C@H](Cc2cn(OC)c3ccccc23)NC1=O` [apicidin, reference compound]: 152 nM.

The values above are taken from US10233201B2, “Class of HDAC inhibitors expands the renal progenitor cells population and improves the rate of recovery from acute kidney injury” (University of Pittsburgh—Of the Commonwealth System of …, priority 2012, dated 2019).
